Consider 42 compounds from ChEMBL document CHEMBL4888484, “Replenishing the malaria drug discovery pipeline: Screening and hit evaluation of the MMV Hit Generation Library 1 (HGL1) against asexual blood stage Plasmodium falciparum ,using a nano luciferase reporter read-out” (2022).

Molecules are shown by their SMILES. Hit rate of the full screen: of about 150,000 compounds, about 540 (0.36%) showed an effect of 50% or more. The list shows a part of the results.

This experiment relates to Plasmodium falciparum. Kind of experiment: Primary screen in NF54 nanoGlo assay, in single point, at 2uM, 72h; a lower Z score goes with more inhibition. In kind it is functional, Erythrocyte. The following applies: timepoint 72 hour.
A word on the % Inhibition: it is the relative decrease from the control value, in per cent. As for `CN(C)S(=O)(=O)NCC#CCOc1ccccc1C(N)=O`, the “% Inhibition” value is -13% and the Z score stood at 1.69.
Consider `CC[C@H](CO)NC(=O)NCc1c(Cl)cccc1OC`, for which the “% Inhibition” value is -22% and the Z score was 2.53.
Take `Cc1ccc(CC(=O)N(CCS(=O)(=O)N2CCNCC2)C2CCCCC2)cc1`: the “% Inhibition” value was -6% and the Z score came out at 0.67.
On the same counts, the results for `Cc1ccc([C@@H]2c3c(N)ncnc3Oc3ccc4ccccc4c32)cc1` are -5% and 0.57.
Turning to `O=C(c1ncccc1O)N1C[C@H]2CC[C@@H](C1)N(Cc1ccccc1)C2`, the “% Inhibition” value was -10% and the Z score is recorded as 1.29.
`Cc1ccc(CNCc2nonc2C)cc1C`: the “% Inhibition” value is reported as -3% and the Z score is recorded as 0.39.
For the compound `CC(C)(C)c1ccc(-c2c(N3CCCC3)cn[nH]c2=O)cc1`, the “% Inhibition” value is given as -5% and the Z score is given as 0.87.
On the same counts, the results for `CCn1cnc2cc(-c3noc(CNC(=O)Cc4ccccc4)n3)ccc21` are -14% and 1.82.
In the case of `Cc1cc(C)c(OC(=O)Cn2cnc3c2c(=O)n(C)c(=O)n3C)c(C)c1`, the “% Inhibition” value was -13% and the Z score worked out at 2.46.
As for `Cc1n[nH]c(=O)nc1Nc1cccc2cccnc12`, the “% Inhibition” value worked out at 5% and the Z score is given as -0.65.
With `CCc1sc(-c2nnc(CN[C@H](c3ccc(F)cc3)c3cccs3)o2)cc1C`, the “% Inhibition” value was -9% and the Z score is listed as 1.16.
On the same counts, the results for `O=C(N1CCCN(C(=O)C2(O)CCCC2)CC1)C1(O)CCCC1` are -4% and 0.42.
For the compound `Cc1cc(Br)oc1C(=O)Nc1nc(-c2ccc3c(c2)OCCO3)cs1`, the “% Inhibition” value is -5% and the Z score is reported as 0.69.
As for `Cc1nc(C)n(C2CN(S(=O)(=O)Cc3cc(C#N)ccc3F)C2)n1`, the “% Inhibition” value is 3% and the Z score is on record as -0.45.
Consider `Cc1nn(-c2ncc(C(F)(F)F)cc2Cl)c(=O)n1-c1ccc(OCc2ccccc2)cc1`, for which the “% Inhibition” value worked out at 41% and the Z score is given as -5.31.
For `Cc1ccc(O[C@@H](C)CNC(=O)Nc2cccn(C)c2=O)cc1`, the “% Inhibition” value is -13% and the Z score was found to be 1.2.
As to `Cc1noc(-c2ccsc2NC(=O)c2ccccc2C)n1`, the “% Inhibition” value is -12% and the Z score stood at 2.26.
Regarding `Cc1ccccc1N1CC[C@@H](C(=O)N2CCN(Cc3ccccc3)CC2)C1=O`, the “% Inhibition” value is -13% and the Z score came to 1.59.
On to `Cc1c(F)cccc1CN1CC[C@]2(O)CCN(C(=O)C3CCC3)C[C@@H]2C1`, for which the “% Inhibition” value is -5% and the Z score is given as 1.07.
`COc1ccc(S(=O)(=O)NCc2nc3cccnc3n2C2CC2)cc1`: the “% Inhibition” value was -9% and the Z score came to 1.41.
For the compound `O=C(c1ccc2nc(-c3ccccc3)cn2c1)N1CCOC[C@@H]1CO`, the “% Inhibition” value was -11% and the Z score stood at 2.03.
In the case of `O=C(CC1CCN(C(=O)c2ccc3nc(-c4ccccc4)oc3c2)CC1)NC1CCCCC1`, the “% Inhibition” value is recorded as -17% and the Z score is listed as 2.
With `C[C@H]1C(=O)NCCN1C(=O)C1=CCCCO1`, the “% Inhibition” value is -7% and the Z score turned out to be 1.08.
On to `CC(C)(C)NS(=O)(=O)Cc1ccc(Br)cc1`, for which the “% Inhibition” value is given as -10% and the Z score came out at 1.39.
Regarding `Fc1cccc(Cl)c1CNCc1cccnc1-n1cccn1`, the “% Inhibition” value was -2% and the Z score came out at 0.48.
As for `Cc1ccc(C(N)=O)c(NCC[C@H](O)CO)n1`, the “% Inhibition” value is -3% and the Z score is recorded as 0.56.
The matching figures for `CC(=O)N1C[C@H](NC(=O)c2ccc(-c3ccc(C)o3)cc2)[C@@H](C2CC2)C1`: -4% and 0.7.
On to `CN(Cc1cccnc1)c1nccc(N2CCN[C@@H]3CS(=O)(=O)C[C@@H]32)n1`, for which the “% Inhibition” value is given as -11% and the Z score worked out at 1.45.
In the case of `CCOc1ccc(N2C[C@@H](C(=O)NC3CCCC3)CC2=O)cc1`, the “% Inhibition” value was determined as 4% and the Z score is -0.65.
For `CC(C)C(=O)Nc1nc(CCc2c[nH]c3ccccc23)n[nH]1`, the “% Inhibition” value was -5% and the Z score worked out at 0.68.
As for `O=C(c1cc(C2CC2)no1)N1C[C@@H]2CC[C@H]1CN(C1Cc3ccccc3C1)C2`, the “% Inhibition” value is -5% and the Z score amounted to 0.87.
Take `Cc1cc(-c2nc(C(=O)N3CCCNC(=O)[C@@H]3C)co2)ccn1`: the “% Inhibition” value is given as -2% and the Z score was 0.31.
Take `O=C(c1ncc2ccccc2c1O)N1CCO[C@@H](CF)C1`: the “% Inhibition” value is -4% and the Z score came out at 0.56.
In the case of `CN(CCc1ccccn1)[C@H]1CCN(Cc2ccco2)C[C@@H]1O`, the “% Inhibition” value is -2% and the Z score came out at 0.34.
As to `Cc1nc(Oc2ccc3c(c2)CCC3)sc1C(=O)O`, the “% Inhibition” value is recorded as 29% and the Z score was -3.25.
As for `COc1ccc(CN2C[C@@H](C(=O)Nc3ccc4[nH]ccc4c3)CC2=O)cc1OC`, the “% Inhibition” value was determined as 0% and the Z score amounted to 0.08.
Consider `O=C(Nc1cccs1)NC1CCC2OCCOC2C1` (centres undefined), for which the “% Inhibition” value is listed as -10% and the Z score was found to be 1.86.
Take `O=C([C@H]1CCc2cn[nH]c2C1)N1CCC(c2ccc(F)c(F)c2)CC1`: the “% Inhibition” value is -16% and the Z score was found to be 1.86.
As to `CO[C@@H](CNC(=O)c1ccccc1C)c1cc2ccccc2o1`, the “% Inhibition” value is -10% and the Z score turned out to be 1.11.
As to `COc1ccccc1/N=C(\NC(=O)c1ccc(C)cc1)N1CCN(C2CCCCC2)CC1`, the “% Inhibition” value is reported as -5% and the Z score turned out to be 0.97.
Turning to `CC[C@@H](CO)N(Cc1cccnc1)C(=O)c1n[nH]c(C)c1Cl`, the “% Inhibition” value is listed as -6% and the Z score worked out at 1.17.
Regarding `Cc1cccc2c1nc1n2[C@@H](CNCc2c[nH]c3ccccc23)COC1`, the “% Inhibition” value turned out to be 1% and the Z score was -0.2.
